The supplement of paper PMC11417369
± gives the standard deviation of the averaged measurements. The list shows a part of the results.

system: PfAP2-EXP AP2 domain (GST-tagged); experiment: gcPBM binding intensity (ln(normalized median fluorescence intensity)); higher = stronger DNA binding
Summary of the method: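 GST-fused DNA-binding domains of P. falciparum, expressed in E. coli, were applied at about 25 μg on average for 1 h to an Agilent 4 × 180k array of primer-extended double-stranded 36-bp intergenic genomic probes and negative controls. Binding intensity is the highest Masliner-normalised natural-log median intensity across replicate spots of either probe orientation, measured with Alexa488 anti-GST antibody and a 488 nm scan.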

| Sequence | gcPBM binding intensity (ln) |
| --- | --- |
| CAGTTTAATTTACATAGTACATAATATTTTAATTTT [XGTACX_site1793] | 8.19 ± 0.3 |
| GTAATATTAATATAATGTACAAAATGAAACATATAT [XGTACX_site6219] | 8.66 ± 0.41 |
| ATTAATTATGTATTTCAACAAAGAAGTGTTATATAT [GTGCAC_negctrl_site215] | 8.49 ± 0.35 |
| ATTATACCGTATTTTGCATGTAGTATTTTCATTTTA [TGCATGCA_site1021] | 9.43 ± 0.3 |
| ATTATTTGTAATATAACACACACAAAAAAAGACTCG [CACACA_site8487] | 8.63 ± 0.52 |
| TCTTTATCCTTTCTCTTTTTATTAATTATAATATTC [TGCATGCA_negctrl_site584] | 8.95 ± 0.38 |
| TATCATTTATATATGTGTACTTATTTATTTATTTAT [XGTACX_site7961] | 8.82 ± 0.45 |
| AAGGAAAATATTAACTGTACATATAAAATATATATA [XGTACX_site5310] | 8.48 ± 0.23 |
| AAATGTACAGGACGCACACACATATATATATATATA [CACACA_site3674] | 10.4 ± 0.81 |
| ATATATACCTAAGACACACACATATATATATATATA [CACACA_site764] | 10.1 ± 0.52 |
| AATGAATCCTTATATACACACATTATTATAGTATAG [CACACA_site7454] | 8.53 ± 0.41 |
| ATTTATATATATTTATGTACGTATTAATTTTTTTTT [XGTACX_site3877] | 8.77 ± 0.45 |
| AAAGAAAATTAAAAAGAACACACAAATATATATATA [CACACA_site9196] | 9.82 ± 0.29 |
| AATAATCATGATCATAGTACGTATGAATACAAAAAA [XGTACX_site265] | 8.67 ± 0.44 |
| ATAAAACAAAGACACACACACATACACAAAAAAAAA [CACACA_site7752] | 8.55 ± 0.67 |
| TATCTACTTAAATAAAATAAAAATAATAAATAAAAA [TGCATGCA_negctrl_site312] | 8.37 ± 0.3 |
| CGTATGTATATATATATACACACTTCTGTGATACGA [CACACA_site1949] | 8.53 ± 0.32 |
| ACATTATGTCATAAATGTACACATACATATACATAC [XGTACX_site8998] | 8.63 ± 0.32 |
| TTTTATTTATTCCTACTTTTTTATTTATTTATTTAA [XGTACX_negctrl_site415] | 8.59 ± 0.41 |

| Sequence | gcPBM binding intensity (ln) |
| --- | --- |
| ATGTATAATATTTTCACACACAAGAAAAAAGAAAAG [CACACA_site3591] | 8.84 ± 0.4 |
| AAATGAATTTAACAATGTACACATATATTATAAATA [XGTACX_site1449] | 8.28 ± 0.31 |
| AAAACGATTTTTTGCACACACATAATAAGCAGAACA [CACACA_site3871] | 8.97 ± 0.33 |
| TACATAATAATAAGGCGTACATAAAAATTAAAAATT [XGTACX_site8769] | 8.79 ± 0.42 |
| ATATACATTCTATATACATGCATACTTCATTTTGTG [TGCATGCA_site966] | 9.13 ± 0.72 |
| TAAGTCAAAACTTTTTTTTCTAAATTTCCATAATTA [GTGCAC_negctrl_site29] | 8.03 ± 0.46 |
| ATATATATATGTATATGTACTCATTCTTCTGTGTTT [XGTACX_site5014] | 9.71 ± 0.42 |
| AAACAATTTAGACATACACACAAAAATAATATTATA [CACACA_site384] | 8.77 ± 0.28 |
| ATTAAAAAAAAGCTCATCGAAATGTCTTATATAAAT [CACACA_negctrl_site912] | 8.72 ± 0.47 |
| ATATATATATATATATGTACATATTGTATTATTCAC [XGTACX_site6511] | 10.2 ± 0.32 |
| CACGAAAATTTGTAGAGTACATATATAATTAATATA [XGTACX_site3808] | 8.54 ± 0.43 |
| CAATTAAACAATTAAACATGCAAAATGATATAATAA [TGCATGCA_site240] | 8.65 ± 0.38 |
| AAAAAAAAATAGAAATGTACAAATTGTAATAATTCC [XGTACX_site6182] | 8.57 ± 0.35 |
| CATATGATATTATTTTGTACTTATTACAAATATGAA [XGTACX_site7929] | 8.4 ± 0.42 |
| TATAATAATATTTATTGTACGATTAGATTAATTCAT [XGTACX_site612] | 8.3 ± 0.61 |
| GAGCATTACACATATACACACATATATATAAACATA [CACACA_site5515] | 8.66 ± 0.36 |
| ATATATATATATATTTGTACATAATATATATATGCA [XGTACX_site1795] | 9.99 ± 0.2 |
| ATGTTCTATAAATATGAACACACGACATATTATTTA [CACACA_site1799] | 8.32 ± 0.42 |
| ATATATATATATATATGTACATATTATTCTCATTGT [XGTACX_site6259] | 9.88 ± 0.28 |

| Sequence | gcPBM binding intensity (ln) |
| --- | --- |
| TGTAGTATCAATTTTTGTACATAACACATATGTATA [XGTACX_site613] | 8.43 ± 0.26 |
| TATATTTAATTACATGAACACACATTATATATTTTT [CACACA_site8969] | 8.46 ± 0.2 |
| TTTATTTTTCCATATGCACACACACCGTATATATAA [CACACA_site8293] | 9.15 ± 0.28 |
| AAAACAAACACATTTACACACATAAATAAATCAATT [CACACA_site4122] | 8.53 ± 0.45 |
| TATTCATTCTATAAAACACACAAATATTTTTGTATC [CACACA_site666] | 8.63 ± 0.4 |
| ATACATACATACATACGTACATATGTATATATATAT [XGTACX_site8498] | 9.7 ± 0.19 |
| AAAATATAAATATATTTGAACATGGATCAAATGTAA [GTGCAC_negctrl_site626] | 8.37 ± 0.35 |
| AAATTAAAATATAATACACACATAAAAAAAAAATCA [CACACA_site5918] | 8.54 ± 0.43 |
| GTATATGAATGTTCATGTACATAATAAAATATATAA [XGTACX_site250] | 8.77 ± 0.5 |
| ATATATATATATAAAGTGCAAAAATGAAAGTAAGAC [GTGCAC_site9850] | 9.99 ± 0.14 |
| ATAAAATATAAAAACGCACACAATTATAAGGGTGTA [CACACA_site177] | 8.78 ± 0.3 |
| AAGAAAAGAAACAAAAAAAAAAAGAAATAAAAGGAA [TGCATGCA_negctrl_site171] | 8.7 ± 0.71 |
| TATATATATATATGTAGTACCTATAATATTAAATAC [XGTACX_site6118] | 9.95 ± 0.33 |
| TTATTATCATCAAATCAAAAAATTCTTTTACCTGTT [CACACA_negctrl_site1348] | 8.21 ± 0.45 |
| AATTTTTTTTTTTTTTTTTTTTATATATGTGTGTGT [XGTACX_negctrl_site129] | 7.99 ± 0.67 |
| TATGAATGGTTAAGTACACACATATTAATATAGGTA [CACACA_site7606] | 8.67 ± 0.33 |
| ATCAATAAATAAAATGTGCACATAATATATTAATAC | 8.93 ± 0.38 |
| TTGAAGAAAAAAAAATGTACATAAAAAATATATATG [XGTACX_site428] | 8.91 ± 0.37 |
